This is one part of the list.

The test system of this experiment is HSkMC (human skeletal muscle cells). The experiment can be described thus: cytotoxicity call (relative viability < 0.9). The following applies: 10 µM.
For `O=C(O)CCCC[C@@H]1SC[C@@H]2NC(=O)N[C@@H]21`, the cytotoxicity call is “inactive”.

In the case of `C[C@@H]1O[C@@H](O[C@@H]2[C@@H](O)[C@H](C)O[C@@H](OC[C@H]3O[C@@H](Oc4c(-c5ccc(O)c(O)c5)oc5cc(O)cc(O)c5c4=O)[C@@H](O)[C@@H](O)[C@@H]3O)[C@@H]2O)[C@H](O)[C@H](O)[C@H]1O`, the cytotoxicity call is “inactive”.

As to `COc1ccc(NC(=O)Nc2ccc3c(c2)C(=O)N([C@@H](C)CO)C[C@@H](C)[C@H](CN(C)S(=O)(=O)c2ccc(C)cc2)OCCCC[C@H](C)O3)cc1`, the cytotoxicity call is “inactive”.

On to `C[C@H](CO)N1C[C@H](C)[C@@H](CN(C)C(=O)Nc2ccccc2)Oc2ccc(NC(=O)C3CC3)cc2CC1=O`, for which the cytotoxicity call is “inactive”.

`O=C(NO)c1ccc(-c2cn(CC(=O)N3CCOCC3)nn2)s1`: the cytotoxicity call is “inactive”.

Consider `C[C@H](CO)N1C[C@H](C)[C@H](CN(C)Cc2ccc(C(F)(F)F)cc2)Oc2ccc(NC(=O)Nc3ccc(C(F)(F)F)cc3)cc2C1=O`, for which the cytotoxicity call was “active”.

With `NC1CCN(c2cccc(Cl)n2)CC1`, the cytotoxicity call was “inactive”.

As to `COCCOC(=O)N1C(=O)[C@@]2(c3cc(C#CCNC(N)=O)ccc31)[C@H](C(=O)N1CCc3cc(OC)c(OC)cc3C1)[C@H]1C(=O)O[C@H](c3ccccc3)[C@H](c3ccccc3)N1[C@@H]2c1ccccc1OCCO`, the cytotoxicity call is “inactive”.

For the compound `C[C@H](CO)N1C[C@H](C)[C@H](CN(C)S(=O)(=O)c2cccs2)Oc2c(NC(=O)Nc3cccc4ccccc34)cccc2C1=O`, the cytotoxicity call was “inactive”.

With `C[C@H](CO)N1C[C@H](C)[C@@H](CN(C)C(=O)CCC(F)(F)F)OCCCC[C@H](C)Oc2ccc(NS(=O)(=O)c3ccc(F)cc3)cc2C1=O`, the cytotoxicity call is “inactive”.

For `O=C(CCCCCNC(=O)OCc1ccc(CO[C@H]2C[C@@H](c3ccc(C(F)(F)F)cc3)C=C(C(=O)NC3CC3)O2)cc1)NO`, the cytotoxicity call is “inactive”.

For `Cc1noc(C)c1NC(=O)N(C)C[C@H]1Oc2c(NC(=O)Nc3cccc4ccccc34)cccc2C(=O)N([C@H](C)CO)C[C@H]1C`, the cytotoxicity call is “inactive”.

For `C[C@@H]1CN([C@H](C)CO)C(=O)c2cccc(NC(=O)Nc3cccc4ccccc34)c2O[C@@H]1CN(C)Cc1ccc(C(=O)Nc2ccccc2N)cc1`, the cytotoxicity call was “inactive”.

For the compound `Cc1ccc(C(=O)c2ccc(Oc3ccccc3)cc2)cc1`, the cytotoxicity call was “inactive”.

Take `CO[C@H]1CN(C)C(=O)c2cc(NC(=O)CC(F)(F)F)ccc2OC[C@H](C)N(C(=O)C2CCOCC2)C[C@H]1C`: the cytotoxicity call was “inactive”.

With `C[C@@H]1CN([C@H](C)CO)C(=O)c2cc(NC(=O)Cn3cnnn3)ccc2O[C@H]1CN(C)C(=O)Nc1cccc2ccccc12`, the cytotoxicity call was “inactive”.

For `C[C@@H]1CN([C@H](C)CO)S(=O)(=O)c2ccc(C#Cc3ccncc3)cc2O[C@@H]1CN(C)S(=O)(=O)c1ccccc1`, the cytotoxicity call was “inactive”.

For the compound `CCNC(=O)C[C@@H]1CC[C@@H](NC(=O)C2CC2)[C@H](CO)O1`, the cytotoxicity call was “inactive”.

Turning to `NC(=O)c1cc[n+](CC2=C(C(=O)[O-])N3C(=O)C(NC(=O)Cc4cccs4)C3SC2)cc1` (stereo not given), the cytotoxicity call was “inactive”.

For `COc1ccc(S(=O)(=O)N2C[C@@H](O)COC[C@@H]3O[C@@H](CC(=O)N[C@@H]4CCN(Cc5ccccc5)C4)CC[C@H]32)cc1`, the cytotoxicity call is “inactive”.

On to `OC[C@H]1O[C@H](O[C@H]2O[C@H](CO)[C@@H](O)[C@H](O)[C@H]2O)[C@H](O)[C@@H](O)[C@@H]1O`, for which the cytotoxicity call is “inactive”.

On to `C[C@@H]1CN([C@@H](C)CO)C(=O)c2cc(NC(=O)Nc3ccc(F)cc3)ccc2O[C@@H](C)CCCCO[C@H]1CN(C)Cc1ccc(C(=O)O)cc1`, for which the cytotoxicity call is “inactive”.

For the compound `C[C@@H]1CCCCO[C@@H](CN(C)C(=O)Nc2ccc(F)cc2)[C@H](C)CN([C@@H](C)CO)C(=O)c2cc(NC(=O)NC3CCCCC3)ccc2O1`, the cytotoxicity call was “inactive”.

Take `CN(C)c1ccc(O)c2c1C[C@H]1C[C@H]3[C@H](N(C)C)C(=O)[C@@H](C(N)=O)C(=O)[C@@]3(O)C(=O)[C@H]1C2=O`: the cytotoxicity call was “inactive”.

For the compound `C[C@H]1CN([C@@H](C)CO)C(=O)Cc2cc(NC(=O)Cc3ccccc3)ccc2O[C@@H]1CN(C)C(=O)Nc1ccc(C(F)(F)F)cc1`, the cytotoxicity call was “inactive”.

For the compound `Cc1ccc(S(=O)(=O)N(C)C[C@H]2Oc3cc(C#Cc4ccccc4)ccc3S(=O)(=O)N([C@H](C)CO)C[C@@H]2C)cc1`, the cytotoxicity call was “inactive”.

On to `COc1ccc(NC(=O)N(C)C[C@@H]2OCCCC[C@H](C)Oc3ccc(NC(=O)Nc4ccc5c(c4)OCO5)cc3C(=O)N([C@@H](C)CO)C[C@H]2C)cc1`, for which the cytotoxicity call is “inactive”.

As for `C[C@H](CO)N1C[C@H](C)[C@@H](CN(C)Cc2ccc(C(F)(F)F)cc2)OCCCC[C@H](C)Oc2ccc(NS(=O)(=O)c3ccc(F)cc3)cc2C1=O`, the cytotoxicity call is “inactive”.

Take `C[C@H](CO)N1C[C@H](C)[C@H](CN(C)Cc2ccc(-c3ccccc3)cc2)Oc2c(NS(=O)(=O)c3ccc(F)cc3)cccc2C1=O`: the cytotoxicity call was “inactive”.

As for `CC(C)[C@H](NC(=O)[C@H](C)N(C)C)C(=O)N1CC[C@@H]2Oc3ccc(cc3)/C=C\NC(=O)[C@H](Cc3ccccc3)NC(=O)[C@H]21`, the cytotoxicity call was “inactive”.

In the case of `CC(C)N1C[C@H](CN(C)Cc2ccc(Oc3ccccc3)cc2)Oc2c(NC(=O)c3ccncc3)cccc2C1=O`, the cytotoxicity call was “inactive”.

Take `CC(C)N1CC2(CN([C@@H](C)c3ccc(Cl)cc3)C2)Oc2c(NC(=O)c3ccncc3)cccc2C1=O`: the cytotoxicity call was “inactive”.

For the compound `CO[C@@H]1[C@@H](OC(=O)c2ccc(C)[nH]2)[C@@H](O)[C@@H](Oc2ccc3c(c2C)OC(=O)[C@H](NC(=O)c2[nH]cc(CC(=O)Nc4cc5ccc(O[C@@H]6OC(C)(C)[C@H](OC)[C@@H](OC(=O)c7ccc(C)[nH]7)[C@H]6O)c(C)c5oc4=O)c2C)C3)CC1(C)C`, the cytotoxicity call was “active”.

Take `Cc1ccc(S(=O)(=O)Nc2ccc3c(c2)C(=O)N([C@H](C)CO)C[C@@H](C)[C@H](CN(C)S(=O)(=O)c2ccc(F)cc2)OCCCC[C@@H](C)O3)cc1`: the cytotoxicity call is “inactive”.

Turning to `O=C(c1ccc(Cl)cc1)c1coc2c1cc(O)c1ccccc12`, the cytotoxicity call was “active”.

Regarding `C[C@@H]1CCCCO[C@H](CN(C)C(=O)c2ccccc2)[C@H](C)CN([C@H](C)CO)C(=O)c2cc(NS(=O)(=O)c3cccs3)ccc2O1`, the cytotoxicity call was “inactive”.

As to `Cc1noc(C)c1NC(=O)Nc1ccc2c(c1)C(=O)N([C@H](C)CO)C[C@@H](C)[C@H](CN(C)C(=O)c1ccccc1)OCCCC[C@H](C)O2`, the cytotoxicity call was “inactive”.

Consider `Cc1noc(C)c1NC(=O)N(C)C[C@H]1OCCCC[C@@H](C)Oc2ccc(NC(=O)Cc3ccccc3)cc2C(=O)N([C@@H](C)CO)C[C@@H]1C`, for which the cytotoxicity call is “inactive”.

Turning to `O=C(C[C@@H]1C=C[C@H](NC(=O)C2CC2)[C@H](CO)O1)NCCCN1CCOCC1`, the cytotoxicity call was “inactive”.

As to `C[C@H](CO)N1C[C@H](C)[C@@H](CN(C)S(=O)(=O)c2ccc(Cl)cc2)Oc2ccc(NC(=O)Nc3ccc(C(F)(F)F)cc3)cc2CC1=O`, the cytotoxicity call was “inactive”.

The values above are taken from the antibiotic and cytotoxicity screens of Wong et al. (2023).
